Experimental data reported in patent publication US20220288124A1 (AUGUSTA UNIVERSITY RESEARCH INSTITUTE, published 2022).

B1: 6G11-CAR (second generation chimeric antigen receptor on human T cells) (other)
chain: DIQMNQSPSSLSASLGDTITITCHASQNINVWLSWYQQKPGNIPKLLIYKASNLHTGVPSRFSGSGSGTGFTLTISSLQPEDIATYYCQQGQSYPWTFGGGTKLEIKRGGGGSGGGGSGGGGSQVQLQQPGSELVRPGASVKLSCKASGYTFTSCWMHWVKQRPGQGLEWIGNIYPGYGNTNYDEKFKNKATLTVDTSSSTAYMQLSGLTSEDSAVYYCTRGSYLYAMDYWGQGTSVTVSSTTTPAPRPPTPAPTIASQPLSLRPEACRPAAGGAVHTRGLDFACDFWVLVVVGGVLACYSLLVTVAFIIFWVKRGRKKLLYIFKQPFMRPVQTTQEEDGCSCRFPEEEEGGCEL[sequence of about 120 residues not given]
notes: In '1 and 22', 1 is the nucleic acid and 22 the protein (claims 15-16); also called 6G11 CARTs; 6G11 CAR+ T cells
B2: 12D7-CAR (second generation chimeric antigen receptor on human T cells) (other)
chain: DIVMTQSQKFMSTSVGDRVSVTCKASQNVGTNVAWYQQKPGQSPKALIYSASYRYSGVPDRFTGSGSGTDFTLTISNVQSEDLAEYFCQQYNSYPLTFGAGTKLELKRGGGGSGGGGSGGGGSQVQLQQPGSELVRPGASVKLSCKASGYTFTSYWMHWVKQRLGQGLEWIGNIYPGSGSTNYDEKFKSKGTLTVDTSSSTAYMHLSSLTSEDSAVYYCTRGDYDWVFAYWGQGTLVTVSATTTPAPRPPTPAPTIASQPLSLRPEACRPAAGGAVHTRGLDFACDFWVLVVVGGVLACYSLLVTVAFIIFWVKRGRKKLLYIFKQPFMRPVQTTQEEDGCSCRFPEEEEGGCEL[sequence of about 120 residues not given]
notes: also called 12D7 CARTs; 12D7 CAR+ T cells
B3: 8F8-CAR (second generation chimeric antigen receptor on human T cells) (other)
chain: DVVMTQTPLTLSVTIGQPASISCKSSQSLLDSDGETYLNWLLQRPGQSPKRLIYLVSKLDSGVPDRFTGSGSGTDFTLKISRVEAEDLGVYYCWQGTHFPLTFGAGTKLELKRGGGGSGGGGSGGGGSEVKLVESGGDLVKPGGSLKLSCAASGFTFSRYGLSWVRQTPEKRLEWVATISGSGSYTYYPDSVKGRFTISRDNAKNNLYLQMSSLRSEDTALYYCVRRGTYGYDNWGQGTTLTVSSTTTPAPRPPTPAPTIASQPLSLRPEACRPAAGGAVHTRGLDFACDFWVLVVVGGVLACYSLLVTVAFIIFWVKRGRKKLLYIFKQPFMRPVQTTQEEDGCSCRFPEEEEGGCEL[sequence of about 120 residues not given]
notes: also called 8F8 CARTs; 8F8 CAR+ T cells

Key:
[1] = target: hGPC3 on the surface of HCC tumor cells (HepG2; hGPC3low Huh7) (human, UniProt P51654 25-554); test: cell-based or functional assay
[2] = target: T1, soluble hGPC3 protein (recombinant human glypican 3) (human, UniProt P51654 25-560, limits assumed); test: flow cytometry of CAR-transduced T cells stained with FITC-labeled hGPC3; Mock-T 0.70%
T1 construct: The construct used in ELISA and BLI and as FITC-labelled protein is not further defined; also called rhGPC3; FITC-labeled hGPC3
Text: GS linker: glycine-serine linker; TM:transmembrane domain of CD28. FIG. 5B is an illustration of the experimental procedure. Human T cells were isolated from PBMC and activated by CD3/CD28 beads for 24 hrs. On day 0, T cells were transduced with lv and CAR expression was monitored from day 3-13. FIG. 5C is a panel of dot plots after CAR gene transduction at different time points were presented. CAR expression was detected by anti-mouse Fab antibody at indicated time points. This experiment was repeated at least 5 time with similar observations. FIGS. 5D and 5E are dot plots showing CAR molecules on the transduced T cells were stained with anti-mouse Fab antibody (A) or FITC-labeled hGPC3. Mock transduced T cells were used as control. FIG. 5F is a graph showing the percent of CAR+ T cells that could bind hGPC3 protein.
The following antibodies were used in the staining: anti-human CD45, anti-mouse CD45, anti-mouse Fab, hGPC3 protein. Cells were stained with indicated antibodies and analyzed on LSR flow cytometer. Goat anti-mouse Fab antibody (Jackson ImmunoReseach Lab) and FITC-labeled hGPC3 were used to determine CAR transduction and the binding of CAR to cognate antigen.

fold change of % CAR+ T cells 6 days after HepG2 stimulation [1]	% of GPC3-positive cells [2]	Binder
6 fold	66.7%	B1
~4 fold	25.6%	B2
–	12.9%	B3
